Whole data set: some 33,000 sequences, median “E-score (-0.5 to 0.5)” near -0.021, cut for the highest 2% near 0.32. Some of the results follow.
The sequences below were run against T1, Zap1 (UniProt P47043) (assay: PBM E-score (8-mer binding enrichment) (E-score (-0.5 to 0.5)); higher = stronger / more preferred TF binding; most listed sequences are background and not binding sites). Conditions: protein concentration: 200 nM; construct: GST-full length.
T1 sequence: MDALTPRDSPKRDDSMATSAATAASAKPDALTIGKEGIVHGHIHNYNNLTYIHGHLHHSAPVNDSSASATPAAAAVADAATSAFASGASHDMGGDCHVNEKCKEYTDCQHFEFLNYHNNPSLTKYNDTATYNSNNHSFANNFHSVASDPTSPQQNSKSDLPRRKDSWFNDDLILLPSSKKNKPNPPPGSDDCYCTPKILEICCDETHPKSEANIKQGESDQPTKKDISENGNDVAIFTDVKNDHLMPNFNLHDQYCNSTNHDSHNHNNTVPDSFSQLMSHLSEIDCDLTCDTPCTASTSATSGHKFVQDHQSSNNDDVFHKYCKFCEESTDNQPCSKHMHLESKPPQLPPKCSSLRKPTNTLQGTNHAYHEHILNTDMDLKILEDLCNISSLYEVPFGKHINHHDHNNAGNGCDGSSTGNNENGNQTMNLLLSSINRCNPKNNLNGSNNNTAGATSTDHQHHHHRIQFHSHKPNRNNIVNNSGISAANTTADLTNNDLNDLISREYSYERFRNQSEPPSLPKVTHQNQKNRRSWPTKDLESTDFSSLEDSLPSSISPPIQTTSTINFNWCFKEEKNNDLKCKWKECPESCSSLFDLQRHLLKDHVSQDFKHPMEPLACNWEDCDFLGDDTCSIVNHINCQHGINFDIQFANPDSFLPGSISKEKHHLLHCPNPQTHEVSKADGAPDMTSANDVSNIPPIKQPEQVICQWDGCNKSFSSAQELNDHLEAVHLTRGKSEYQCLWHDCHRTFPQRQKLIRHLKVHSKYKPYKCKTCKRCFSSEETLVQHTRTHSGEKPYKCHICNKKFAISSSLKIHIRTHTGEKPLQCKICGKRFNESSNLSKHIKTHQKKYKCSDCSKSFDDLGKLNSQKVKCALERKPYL
Summary of the method: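 Bound GST-tagged yeast transcription factors, applied at about 100-200 nM to double-stranded universal all-10-mer Agilent arrays, were detected with fluorescent anti-GST. Scans were normalised with masliner. A modified Wilcoxon-Mann-Whitney statistic, the E-score, was assigned to each ungapped eight-base word pooled with its reverse complement by the Universal PBM Analysis Suite.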

| Sequence | PBM E-score |
| --- | --- |
| CAAGCATC | -0.105 |
| CGTTATTA | 0.114 |
| ACAAGGAC | -0.0119 |
| CTCGTCTC | -0.196 |
| CTCTTCAG | 0.0335 |
| CGTTTGTA | 0.123 |
| CCTACGGA | -0.232 |
| GCCGTTTA | -0.16 |
| GAAGTGGC | -0.106 |
| CCGACATC | 0.06 |
| ATGTTCAC | 0.0804 |
| AGGCGCTG | -0.194 |
| TATCCGCA | 0.112 |
| GAGAATCA | -0.128 |
| CATGGGGA | 0.151 |
| ATTCCAGA | -0.137 |
| GATGTCAA | -0.291 |
| AGTGCGGG | -0.0868 |
| CATGCTCC | -0.316 |
| CTTTTGAC | 0.101 |
| AGAACAGA | -0.0561 |
| CGACCAAG | -0.00356 |
| TGGAAAAA | 0.162 |
| AGTACTAG | 0.175 |
| AATGAATC | -0.148 |

| Sequence | PBM E-score |
| --- | --- |
| TAGAGCCA | -0.11 |
| CATGAGTC | -0.0381 |
| CACTTCTG | -0.155 |
| CATTTTTA | -0.0145 |
| CACTAATC | 0.132 |
| AGCTGCTA | -0.241 |
| GCTACGAC | -0.114 |
| AACGACTC | -0.28 |
| CAGCGCGC | -0.144 |
| ACCGGCAG | -0.136 |
| CTGGAAAC | -0.00917 |
| GCTACACA | -0.175 |
| CTACATTC | -0.127 |
| GCCCGTCA | -0.341 |
| GGAAAACC | 0.134 |
| ATTGGGAA | -0.0739 |
| CTATTCCC | -0.178 |
| TGCTTTAA | 0.0812 |
| GCGGCCCA | -0.0162 |
| GACGTTCA | -0.224 |
| CCGAGTGC | -0.205 |
| CCCTTACA | 0.0265 |
| CATGTTCA | -0.217 |
| AATCCTGA | -0.0744 |
| ATTAGTAA | 0.128 |

| Sequence | PBM E-score |
| --- | --- |
| GAGCCCTA | -0.139 |
| ATCGTTCG | -0.129 |
| CGTATACA | -0.0506 |
| CACGAATC | -0.0402 |
| CATCCATC | -0.221 |
| GCGTCGAC | -0.0199 |
| GTTCTTGA | 0.262 |
| AACCCTGG | 0.392 |
| AGTGGGTG | 0.0541 |
| CCTTGACA | 0.036 |
| CTTTTTGA | 0.138 |
| ACATATCT | 0.0442 |
| AATGTGTG | 0.0602 |
| CGCTGTTA | -0.101 |
| ACTTAGCC | -0.254 |
| GTGTCGAA | -0.0374 |
| CCGACTTA | -0.0765 |
| AACAAAGG | 0.164 |
| CCACCACA | 0.00801 |
| ATTGTGTA | 0.122 |
| AGAGTCAG | -0.145 |
| AGCAGGAG | -0.116 |
| AACCTAAA | 0.356 |
| AGATGATA | 0.0556 |
| CACACTTC | 0.0215 |

| Sequence | PBM E-score |
| --- | --- |
| CATTGCCG | -0.00464 |
| AGTAGACA | 0.119 |
| CCCGTCAA | -0.0938 |
| AGGTACGA | -0.0106 |
| GATGAATA | 0.069 |
| GAAGCCAC | -0.213 |
| GAAGCAGA | -0.198 |
| AAACAGCT | -0.0665 |
| AGTCCCAT | -0.258 |
| TCTGTCCA | 0.0414 |
| CAGGAGTA | 0.0199 |
| GAACCCTA | 0.272 |
| AGAGTTTC | -0.223 |
| CGGATTTC | -0.05 |
| TCAGGGGA | -0.0374 |
| AAATCTCG | -0.108 |
| CCACCTTC | 0.0785 |
| CCCCGCAA | -0.00597 |
| CCTCTCAA | 0.067 |
| GGTTCGAA | 0.195 |
| CAGTGAGG | -0.166 |
| ACAAGCAG | -0.0114 |
| CACTTGCG | 0.0494 |
| ATGTGCGC | -0.193 |
| CGGCTTCA | -0.0407 |

| Sequence | PBM E-score |
| --- | --- |
| CAGTGGAG | -0.0265 |
| CGCTCGGC | -0.188 |
| CCCGACCA | 0.197 |
| AGGCGTAG | -0.223 |
| GTCCGCAC | -0.0047 |
| ACGGACGT | -0.121 |
| GATGAGCA | 0.02 |
| CAATTGCA | -0.0471 |
| AATAGAAA | -0.0712 |
| CACAAAGC | 0.132 |
| CACTAGAG | 0.0544 |
| AGTCGCGG | -0.143 |
| TGCGGAAA | -0.092 |
| ACGTTACA | -0.0394 |
| AACAGCGG | -0.195 |
| GGTGGAAC | 0.0372 |
| CGGGCTAG | -0.0994 |
| TCTCGAAA | 0.103 |
| ACGAGAAA | 0.0387 |
| AAATTGTC | 0.156 |
| AAGTCCCG | -0.242 |
| AGCTTTGC | -0.268 |
| AAGTTAAT | -0.108 |
| ACATATCC | -0.0913 |
| TAGATGCA | -0.171 |

| Sequence | PBM E-score |
| --- | --- |
| GAGCCTCC | -0.225 |
| ACTGTTCC | -0.193 |
| CCCTTCCA | 0.0312 |
| GATTGAAC | 0.00648 |
| ACGATATC | 0.0333 |
| ACCCAACT | 0.0992 |
| AATGCTCG | -0.21 |
| CAAAAACA | 0.0707 |
| AACCCCGC | 0.293 |
| CAATAAAC | 0.164 |
| AATTGTTA | 0.133 |
| ACTTTGCA | 0.116 |
| ACCGATCA | 0.0449 |
| CCAGCCTA | -0.0123 |
| TACTCAAA | 0.148 |
| CCGTGTTC | 0.017 |
| ATTGGTAC | 0.0554 |
| TACATGCA | -0.145 |
| AACGAATC | -0.0538 |
| GATTAGAC | -0.121 |
| GCACATGC | -0.0933 |
| GGTGCTAC | -0.141 |
| AGCGGACC | 0.045 |
| CCGGATTA | -0.00605 |
| ATGAGGGG | 0.02 |

| Sequence | PBM E-score |
| --- | --- |
| CGTACATC | -0.131 |
| ATACTCAC | -0.133 |
| GAGTAAGC | -0.221 |
| ACCAGAAT | 0.217 |
| ATTGCTTA | -0.0684 |
| CTGTCGCA | -0.146 |
| ATAACGGC | 0.0836 |
| CATAAACG | 0.0839 |
| ACACATCG | -0.0862 |
| CCACAGCG | -0.0732 |
| GCCCGCCA | -0.153 |
| ATTTTGTG | 0.208 |
| ACCCGCAT | 0.271 |
| GGCGTCAA | 0.198 |
| CAGCTTAG | -0.169 |
| ATTTGCAC | 0.0494 |
| CGCCCCAG | -0.237 |
| CCTTGATC | 0.193 |
| ACATGAAG | -0.0619 |
| CACAATGG | 0.0532 |
| CATCATTA | 0.167 |
| TTATATAA | 0.331 |
| AGCGGCGG | 0.103 |
| AGCATATA | -0.0568 |
| GAGCATGC | -0.334 |

| Sequence | PBM E-score |
| --- | --- |
| GGGTCAGA | 0.0808 |
| CTCTACAA | 0.117 |
| AGATACAA | 0.129 |
| ACAGCGGA | -0.165 |
| AAGCGGGA | -0.182 |
| CCAACTGC | -0.165 |
| CACCGAGA | -0.0426 |
| AACCGCAC | 0.25 |
| GTTGATTA | 0.193 |
| CAGCACAA | 0.0977 |
| ACGGGGCT | -0.31 |
| CTAATCAG | -0.094 |
| CCGCCATC | -0.148 |
| TATCTACA | 0.154 |
| GAGGTAAC | 0.365 |
| ACAAGAAC | 0.268 |
| CGCGGCCA | 0.0146 |
| CATCCTCC | -0.176 |
| GTAGCTTA | 0.116 |
| AATGGCTG | -0.0933 |
| AGAACTTG | -0.0173 |
| ATGTGAGA | 0.0533 |
| CGTGGCTC | -0.23 |
| CAACCCTA | 0.442 |
| ATAGTCGC | -0.00369 |

| Sequence | PBM E-score |
| --- | --- |
| ATCATTAC | 0.0815 |
| ATTACTCG | 0.153 |
| ATACTGTG | -0.013 |
| CCTCGCCC | -0.0823 |
| CCGCATTC | -0.0743 |
| ACCACTCA | 0.0988 |
| AAGCCAGC | -0.143 |
| CTTCTATC | 0.0389 |
| CCGGCCTA | -0.0184 |
| ACGCAACT | 0.138 |
| CTTGGATC | 0.0534 |
| CGGTGGAA | -0.149 |
| CAAGTCAG | -0.0782 |
| AACTTAAG | -0.0397 |
| GAAGATAA | 0.148 |
| AGGGAAAG | -0.268 |
| ATGGAGTC | -0.234 |
| GAACTGCC | -0.141 |
| GACCGATA | 0.0462 |
